# Test results reported in the supplement of paper PMC7826260.
# The list shows a part of the results. One pool of 16,384 single-stranded DNAs met each Rep nickase domain in vitro (1 h at 37 °C, 3 µM enzyme); the outer parts of the 90-letter strands are left off. Values are log2 of uncut reads against the no-enzyme pool; uncut sequences lie near 0, cut ones below; no hit call is given. The scaling is to total reads, so uncut sequences can rise above 0 when many others are cut.
# Key:
# Test in all cases: uncleaved DNA left, log2 of reads against the no-enzyme library (log2 ratio); higher = less cleavage (more negative = more Rep cleavage of the k-mer); sequences stand for … in CTCGTCCG…ACCGGAGA
# [1] = test system: T1, Rep nickase domain of Muscovy duck circovirus
# T1 sequence (Rep 1-111, printed without the tag): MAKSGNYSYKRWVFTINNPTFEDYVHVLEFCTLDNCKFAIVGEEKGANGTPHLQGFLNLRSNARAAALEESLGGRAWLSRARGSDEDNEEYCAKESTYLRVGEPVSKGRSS
# Protocol: (§1)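 A pool of 90-nt single-stranded DNAs with seven random bases just before the constant AC of the nick site (name = the seven bases) was cut by 3 µM recombinant His6-SUMO-tagged Rep nickase domain (300 nM DNA, 50 mM HEPES pH 8.0, 50 mM NaCl, 1 mM MnCl2, 1 h, 37 °C, three replicates). Uncut DNA was amplified and sequenced.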
# [2] = test system: T2, Rep nickase domain of banana bunchy top virus
# T2 sequence (Rep 1-94, printed without the tag): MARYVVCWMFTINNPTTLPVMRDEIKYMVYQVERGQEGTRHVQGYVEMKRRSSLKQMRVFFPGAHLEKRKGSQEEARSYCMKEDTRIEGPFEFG
# Protocol: as §1
# [3] = test system: T3, Rep nickase domain of cabbage leaf curl virus
# T3 sequence (Rep 1-116, printed without the tag): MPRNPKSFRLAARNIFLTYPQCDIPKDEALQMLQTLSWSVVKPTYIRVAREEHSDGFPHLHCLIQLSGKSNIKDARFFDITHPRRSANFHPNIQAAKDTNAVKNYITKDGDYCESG
# Protocol: as §1
# [4] = test system: T4, Rep nickase domain of chickpea chlorotic dwarf virus
# T4 sequence (Rep 1-124, printed without the tag): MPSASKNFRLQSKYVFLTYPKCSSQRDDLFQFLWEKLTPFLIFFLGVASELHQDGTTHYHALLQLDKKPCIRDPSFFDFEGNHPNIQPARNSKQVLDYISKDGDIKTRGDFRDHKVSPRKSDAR
# Protocol: as §1
# [5] = test system: T5, Rep nickase domain of faba bean necrotic yellows virus
# T5 sequence (Rep 1-98, printed without the tag): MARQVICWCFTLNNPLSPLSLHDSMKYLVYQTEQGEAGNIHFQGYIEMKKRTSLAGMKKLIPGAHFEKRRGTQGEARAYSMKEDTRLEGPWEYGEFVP
# Protocol: as §1
# [6] = test system: T6, Rep nickase domain of maize striate mosaic virus
# T6 sequence (Rep 1-117, printed without the tag): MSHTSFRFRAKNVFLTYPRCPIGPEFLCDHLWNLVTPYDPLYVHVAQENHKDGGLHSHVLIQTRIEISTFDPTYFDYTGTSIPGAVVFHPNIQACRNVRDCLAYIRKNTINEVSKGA
# Protocol: as §1
# [7] = test system: T7, Rep nickase domain of porcine circovirus 2
# T7 sequence (Rep 2-116, printed without the tag): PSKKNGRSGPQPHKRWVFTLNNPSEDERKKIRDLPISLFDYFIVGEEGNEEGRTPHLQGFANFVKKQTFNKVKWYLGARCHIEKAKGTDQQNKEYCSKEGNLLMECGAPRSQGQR
# Protocol: as §1
# [8] = test system: T8, Rep nickase domain of tomato golden mosaic virus
# T8 sequence (Rep 1-124, printed without the tag): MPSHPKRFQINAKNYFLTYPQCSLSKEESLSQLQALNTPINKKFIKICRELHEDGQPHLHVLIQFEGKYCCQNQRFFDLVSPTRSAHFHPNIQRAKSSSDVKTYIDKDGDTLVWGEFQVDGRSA
# Protocol: as §1
# [9] = test system: T9, Rep nickase domain of tomato yellow leaf curl virus
# T9 sequence (Rep 1-136, printed without the tag): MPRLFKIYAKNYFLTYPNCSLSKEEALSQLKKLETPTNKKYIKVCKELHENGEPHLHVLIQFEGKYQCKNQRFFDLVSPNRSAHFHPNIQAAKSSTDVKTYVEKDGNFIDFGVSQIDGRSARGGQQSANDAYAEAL
# Protocol: as §1
# [10] = test system: T10, Rep nickase domain of wheat dwarf virus
# T10 sequence (Rep 1-137, printed without the tag): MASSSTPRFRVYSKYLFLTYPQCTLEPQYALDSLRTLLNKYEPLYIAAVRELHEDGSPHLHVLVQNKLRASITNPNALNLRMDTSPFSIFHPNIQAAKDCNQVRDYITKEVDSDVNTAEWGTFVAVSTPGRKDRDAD
# Protocol: as §1
Sequence,uncleaved DNA left (log2) [1],uncleaved DNA left (log2) [2],uncleaved DNA left (log2) [3],uncleaved DNA left (log2) [4],uncleaved DNA left (log2) [5],uncleaved DNA left (log2) [6],uncleaved DNA left (log2) [7],uncleaved DNA left (log2) [8],uncleaved DNA left (log2) [9],uncleaved DNA left (log2) [10]
GTTATCG,0.0526,-0.0689,-0.447,-0.511,-0.00416,-0.722,0.164,-0.0401,-0.0559,-0.0887
TACATTG,-0.00673,-0.106,-0.569,-0.877,0.105,-1.26,0.148,-0.0417,-0.143,0.0147
TAATGCA,-1.09,0.0579,-2.86,-2.54,0.0673,-1.99,-1.66,-0.982,0.0546,-1.51
CCAGACA,-0.149,-0.122,0.00493,-0.953,-0.0552,-0.0717,-0.0572,-0.073,-0.223,-0.0789
GGAGCCT,0.116,0.221,0.76,1.36,0.141,2.08,0.197,0.125,0.112,0.218
TGGAAAT,0.0385,0.123,0.862,1.97,-0.00828,2.18,0.172,0.0923,0.143,0.279
GGTTAGA,0.0728,0.117,0.458,1.11,0.045,1.5,0.199,0.0798,0.0403,0.19
ATCCCTT,-0.0704,-0.0372,0.325,-0.989,0.111,0.203,-0.57,-0.153,-0.0257,0.0365
CGAACAG,0.0107,0.00526,-0.216,-0.121,0.0211,-0.278,0.102,-0.093,-0.0597,-0.00548
CGTTAAT,-2.43,-0.267,-0.0117,-0.636,-0.058,-0.362,-3.04,-0.095,0.042,-0.121
CTTGAAC,0.0329,-0.115,0.00616,-0.464,-0.0531,-0.757,-0.0331,-0.0449,-0.13,-0.0152
TTCCGGC,0.0541,-0.0811,0.214,0.25,-0.038,0.324,0.102,-0.0287,-0.0486,-0.0241
AGGATAT,0.201,0.23,0.875,2.02,0.107,2.13,0.367,0.109,0.152,0.313
AGCAACC,-0.00814,0.0826,0.0717,0.0495,-0.0529,0.3,-2.42,0.159,0.0595,0.18
ATCCTCA,-0.0533,0.115,-0.0192,-0.795,0.0578,-0.334,0.0496,-0.022,0.111,0.0777
GACGCGA,0.0664,-0.0931,-0.526,-0.229,0.228,-0.688,0.0818,0.00527,-0.0461,-0.0641

Sequence,uncleaved DNA left (log2) [1],uncleaved DNA left (log2) [2],uncleaved DNA left (log2) [3],uncleaved DNA left (log2) [4],uncleaved DNA left (log2) [5],uncleaved DNA left (log2) [6],uncleaved DNA left (log2) [7],uncleaved DNA left (log2) [8],uncleaved DNA left (log2) [9],uncleaved DNA left (log2) [10]
CAGCTCT,-0.0864,-0.149,-0.876,-2.88,-0.183,-0.638,-3.17,-0.326,-0.124,-0.278
GCTCCCG,-0.196,-0.0247,-0.846,-0.551,-0.208,-0.962,-0.15,-2.44e-05,-0.00567,-0.0455
GAGAGAA,0.0912,0.113,0.433,1.06,0.00745,1.11,-0.125,0.156,0.0628,0.0958
GGGATAC,0.0366,0.163,0.882,2.06,0.0342,2.14,0.259,0.0613,0.0595,0.107
AGAGAGC,0.0778,0.0353,-0.077,0.000221,0.0681,-0.624,0.198,0.0139,-0.0389,0.0154
CATGTAA,-0.0386,0.00557,-0.208,-0.689,0.117,-0.974,0.0451,0.102,0.0467,0.0309
ACTAGCT,-0.0501,-0.0856,-0.708,-1.24,-0.0134,-1.24,-0.272,-0.0775,-0.0551,-0.0949
TTCTAGG,0.108,0.139,0.61,1.49,0.105,1.96,0.239,0.217,-0.0175,0.225
TTCGAAT,0.013,-0.0197,-0.0269,-0.264,0.143,-0.247,-0.225,-0.0566,0.0346,-0.0183
GGCTATC,-0.0599,-0.0549,0.389,1.07,-0.0795,1.57,-0.0231,-0.254,-0.0337,-0.0148
ATAGAAC,0.0439,-0.0879,3.04e-05,-0.329,-0.0533,-0.612,0.0029,0.0368,-0.0937,0.0054
TCTCTAT,-0.00359,-0.124,0.206,-0.538,-0.0695,-0.251,-0.131,0.0581,-0.0719,0.0357
CGTCATA,0.0561,0.107,0.0521,-0.309,0.136,-0.0819,-0.0672,0.0343,0.196,0.123
ACACCAA,-0.185,-0.0542,-0.252,-0.311,-0.0602,-0.682,-0.00634,-0.108,-0.193,-0.0882
CGATGCC,-0.0651,0.00524,-0.18,0.136,-0.109,-0.223,-0.129,0.0197,0.0377,0.0559
